# Experimental data taken from publication PMC6919601, “Identification of Plasmodium dipeptidyl aminopeptidase allosteric inhibitors by high throughput screening” (PLoS ONE, 2019).
# Where “and” joins values, the source holds several entries; their conditions need not be identical. Equal values may be shown once. In all, about 110,000 compounds went through this assay and about 230 (0.21%) showed an effect of 50% or more. The list shows a part of the results.
# Target: DPAP1 (Plasmodium falciparum, UniProt Q8IIJ9)
# Experiment: primary screen, percent inhibition; read by cleavage of a fluorogenic dipeptide substrate; higher = more effect of the substance
# Set-up: species or system P. falciparum D10 trophozoite lysates; single well
# 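Further: 30 min substrate incubation versus DMSO and 10 µM JCP410 controls.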
# DPAP1, sequence (Q8IIJ9 whole entry, looked up): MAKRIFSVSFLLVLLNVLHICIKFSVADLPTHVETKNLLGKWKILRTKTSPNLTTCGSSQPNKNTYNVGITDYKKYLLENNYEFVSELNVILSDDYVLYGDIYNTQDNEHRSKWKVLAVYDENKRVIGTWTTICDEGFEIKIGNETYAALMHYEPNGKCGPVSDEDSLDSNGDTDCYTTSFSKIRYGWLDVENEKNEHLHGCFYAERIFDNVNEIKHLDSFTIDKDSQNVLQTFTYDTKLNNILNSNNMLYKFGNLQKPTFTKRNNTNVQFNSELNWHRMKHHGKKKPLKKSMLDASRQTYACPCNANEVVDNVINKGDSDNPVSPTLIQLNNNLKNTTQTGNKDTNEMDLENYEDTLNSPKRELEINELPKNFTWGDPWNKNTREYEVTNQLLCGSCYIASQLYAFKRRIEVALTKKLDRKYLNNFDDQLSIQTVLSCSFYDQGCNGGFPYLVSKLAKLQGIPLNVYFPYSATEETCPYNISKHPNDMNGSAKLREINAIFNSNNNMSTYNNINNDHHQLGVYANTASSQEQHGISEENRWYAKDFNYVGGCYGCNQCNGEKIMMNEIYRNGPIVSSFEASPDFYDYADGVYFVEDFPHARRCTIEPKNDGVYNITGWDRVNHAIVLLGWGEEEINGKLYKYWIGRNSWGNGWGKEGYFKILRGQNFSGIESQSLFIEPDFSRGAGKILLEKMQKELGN
row,SMILES,% Inhibition @ 10 uM
1,Cc1cccc(NC(=O)Cc2c(F)cccc2Cl)n1,1.39%
2,CCOC(=O)c1c(C)nn(C2CCCCC2)c1N,3.65%
3,COc1cccc(OC)c1-c1nnc(-c2ccccc2Cl)o1,2.41%
4,CCc1cccc(C)c1NC(=O)COc1cccc(NC(C)=O)c1,1.13%
5,COCCNC(=O)c1c(NC(=O)Cc2coc3cc(C)cc(C)c23)sc2c1CCCC2,-0.671%
6,Cc1cccc(NC2=C(Cl)C(=O)N(c3ccccc3)C2=O)c1C,1.03%
7,COc1cc(/C=C2/C(=N)N3C(c4ccccc4)=CSC3=NC2=O)ccc1OC(C)C,-0.178%
8,COc1ccc(-n2nc3c(c2NC(=O)c2ccccc2C)CS(=O)(=O)C3)cc1,3.8%
9,CCOC(=O)C1=C(N)Oc2ccc3ccccc3c2C1c1cccc(O)c1 (stereo not shown),24.8%
10,COc1ccc(CCn2c(SCc3ccccc3F)nc3nccnc3c2=O)cc1OC,-5.99%
11,CC1CCCN(CCCNC(=O)c2ccc(CS(=O)(=O)Cc3cccc(Cl)c3)o2)C1 (stereo not shown),2.35%
12,CCOc1ccccc1NS(=O)(=O)c1ccc(Cl)cc1,-4.63%
13,O=C(OC[C@@H]1CCCN2CCCC[C@H]12)c1ccccc1,1.29% and -3.82%
14,Cc1ccc(C)c(S(=O)(=O)Nc2cccc(C(F)(F)F)c2)c1,0.132%
15,Cc1ccc(-n2c(C)cc(/C=C3\SC(=O)NC3=O)c2C)cc1C,3.65%
16,O=C(NCCCN1CCc2ccccc2C1)c1ccc2nc(N3CCCCC3)sc2c1,1.03%
17,FC(F)(F)Oc1ccc(CNc2ccc3c[nH]nc3c2)cc1,-3.57%
18,CCN1CCN(C(=O)Cn2ncc3c(C)n(Cc4ccccc4)c(C)c3c2=O)CC1,-0.447%
19,Cc1cccc(-c2nc(C#N)c(N3CCOCC3)o2)c1,-2.16%
20,Cc1ccc(CN2CCN(Cc3ccc4c(c3)OCO4)CC2)c(C)c1,-3.72%
21,COc1ccc(C(=O)Nc2cc3ccccc3cc2NC(=O)c2ccc(OC)cc2)cc1,4.42%
22,CC(C)OCCCNc1ncnc2c1nc1n2CCCCC1,2.99%
23,CCOC(=O)C1CCN(c2cccc(C)n2)CC1,-1.2%
24,Cc1ccc(CNCCCSc2nnnn2-c2ccccc2)s1,-4.71%
25,COC(=O)c1c(C)nc(C)c(C(=O)OC)c1-c1cccs1,-4.42%

row,SMILES,% Inhibition @ 10 uM
1,COc1ccccc1C(=O)n1nc(-c2cccnc2)nc1NCc1ccc(F)cc1,-1.15%
2,COc1ccc(SCCc2ccccn2)cc1,1.13% and 0.51%
3,O=C(c1cc(C2CC2)[nH]n1)N1CCN(Cc2ccccc2)CC1,-1.04%
4,COc1ccc(C2=CC(c3cc(Br)ccc3F)n3nnnc3N2)cc1 (stereo not shown),3.32%
5,CN1C(C)(C)CC(NC(=O)c2ccncc2)CC1(C)C,-16.5%
6,Cc1cc(N2CCN(c3ccccn3)CC2)n2nc(C)c(-c3ccccc3)c2n1,1.55%
7,CCN(CC)C(=O)C(=O)c1c(-c2ccccc2)n(C)c2ccccc12,-7.8%
8,O=C(Nc1c(C(=O)N2CCN(c3ccc(F)cc3)CC2)cnn1-c1ccccc1Cl)c1ccco1,3.8%
9,Cc1cccc2c1-c1sc(C(=O)N(C)Cc3ccccc3)cc1CO2,-8.58%
10,O=S1(=O)CCC(Oc2ccc(Br)cc2)C1 (stereo not shown),-5.38%
11,COc1cc2c(cc1OC)C(c1ccc(Cl)cc1Cl)N(c1ccc(C)cc1)C(=O)C2 (stereo not shown),-7.19%
12,Cc1ccc(C2=NN(C(=O)CCC(=O)O)C(c3ccc4c(c3)OCO4)C2)cc1 (stereo not shown),-4.43%
13,CCOCCCNC(=O)c1cc(OC)cc(OC)c1,-8.49%
14,CCOC(=O)c1ccc2c(c1)C1C=CCC1C(c1ccc(Cl)cc1Cl)N2 (stereo not shown),-4.8%
15,Cc1nn(-c2ccccc2)c(C)c1Sc1nnc(O)nc1O,-2.6%
16,O=C(O)c1ccc(CS(=O)c2cccc(C(F)(F)F)c2)o1 (stereo not shown),6.13%
17,CC(C)(C)c1cc(C(C)(C)C)cc(S(=O)(=O)CCc2ccccn2)c1,1.7%
18,N#CC(C#N)=Cc1ccc(-c2ccc(Cl)cc2Cl)o1,7.24%
19,CCOc1ccc(NC(=O)C2CC(=O)N(CC)/C(=N\c3ccccc3)S2)cc1 (stereo not shown),-1.04%
20,O=S(=O)(c1ccccc1)n1nc(-c2ccco2)nc1NCc1cccs1,-5.08%
21,Cc1ccc(-n2nc(C(=O)O)cc2-c2ccccc2)cc1,-1.33%
22,Cc1cccc(N2C(=O)CC(N3CCN(Cc4ccccc4)CC3)C2=O)c1 (stereo not shown),2.09%
23,O=C(c1ccc(Oc2ccccc2)cc1)c1ccc(C(=O)c2ccc(Oc3ccccc3)cc2)cc1,-1.45%
24,COc1ccc(NCCNc2ccc(OC)cc2)cc1,-1.69%
25,O=[N+]([O-])c1ccc(Cl)c(CN2CCSCC2)c1,-5.5%

row,SMILES,% Inhibition @ 10 uM
1,COc1ccc(N2CCN(C(=O)CN(Cc3ccccc3)S(C)(=O)=O)CC2)cc1,-3.45%
2,O=C(CSc1ccc(-c2cccs2)nn1)NCCc1ccccc1,3.54%
3,COc1ccc(N2C(=O)c3cccc([N+](=O)[O-])c3C2=O)cc1,3.32%
4,Cc1cc(NC(=O)c2ccc3c(c2)OCO3)n(Cc2ccc(F)cc2)n1,-3.34%
5,N#CC1=C(N)Oc2[nH]nc(-c3ccccc3)c2C1c1ccccc1F (stereo not shown),-0.941%
6,COCCCNC(=O)c1c(C)c(-c2ccc(C)cc2)nc2ccccc12,-2.69%
7,CCOc1cc(CNCc2c(C(=O)O)n(Cc3ccc(OC)cc3)c3ccccc23)ccc1OC,-4.99%
8,Cc1cc(-c2noc(Cn3nc(C)c(Br)c3C)n2)c2ccccc2n1,3.66%
9,N#Cc1c(-c2ccc(-c3ccccc3)cc2)csc1N,16.7%
10,CCOC(=O)CNc1nc(Cl)nc(NC(C)(C)C)n1,0.878%
11,CCS(=O)(=O)c1nc(S(=O)(=O)c2ccc(Cl)cc2)c(NC2CCCCC2)s1,-4.26%
12,Cc1[nH]nc2c1C(c1ccc(-c3cc(Cl)ccc3Cl)o1)C(C#N)=C(N)O2 (stereo not shown),0.851%
13,COc1ccccc1Nc1nc(N)nc(CN2CCN(C)CC2)n1,-2.29%
14,CCOC(=O)c1cc(-c2ccccc2)n(-c2ccccc2C)n1,-1.33%
15,O=C(NCC1CCCO1)c1ccc(CS(=O)(=O)c2c(Cl)cccc2Cl)o1 (stereo not shown),-1.05%
16,CCOC(=O)N1CCN(S(=O)(=O)N2CCCC(C(=O)N3CCCCC3)C2)CC1 (stereo not shown),0.387%
17,Cc1nn(C)c(C)c1NC(=O)c1ccc2ccccc2c1,-1.46%
18,Cc1nn(C)c(C(=O)NC2C3CC4CC(C3)CC2C4)c1Br (stereo not shown),0.727%
19,Cc1ccc(SCc2cc(=O)n3c4c(sc3n2)CCCC4)cc1,0.44%
20,Cc1c2cccn2cc[n+]1CC(=O)c1ccccc1,1.67%
21,CC(C)COc1ccc(C(=O)Nc2nn3c(CC(C)C)nnc3s2)cc1,0.229%
22,Cc1nn(CCC(=O)NCCc2cccs2)c(=O)c2nn(-c3ccccc3)c(C)c12,-11.3%
23,CCN(CC)CCCNc1ncnc2ccccc12,2.46%
24,N=C1S/C(=C\c2c[nH]nc2-c2ccc(Cl)cc2)C(=O)N1c1nonc1N,5.12%
25,O=[N+]([O-])c1ccc(CN2CCC(N3CCCCC3)CC2)cc1,-7.34%

row,SMILES,% Inhibition @ 10 uM
1,Cc1cccc(C(=O)Nc2ccc(Cl)cc2)c1,-5.41%
2,COc1cc2ncc(C(=O)c3ccc(C)cc3)c(O)c2cc1OC,-3.48%
3,COc1ccc(-c2nc(CSCC(=O)N(C)Cc3ccccc3)c(C)o2)cc1OC,-2.85%
4,COc1ccc(-c2nc(CS(=O)(=O)CC(=O)NCCC(C)C)c(C)o2)cc1,-3.7%
5,COc1ccc(C(=O)N2CCN(Cc3cccc(F)c3)CC2)cc1OC,13.7%
6,COC(=O)C1=C(O)/C(=C\c2ccc(-c3cccc(C(F)(F)F)c3)o2)N=C1C,-0.85%
7,CC1=CS(=O)(=O)CC1Sc1nc2ccccc2[nH]1 (stereo not shown),-2.75%
8,CC1=NN(c2nc(-c3ccccc3)cc(-c3ccc(C)cc3)n2)C(=O)C1,4.42%
9,CSCCC1Oc2ccc(Cl)cc2C2CC(c3cc(C)ccc3O)=NN12 (stereo not shown),-1.68%
10,C=C(C)CSC1=C(C#N)C(c2ccccc2)CC(=O)N1 (stereo not shown),-2.35%
11,COc1ccc(CN2CCN(C(=O)c3cccs3)CC2)cc1Br,-4.7%
12,Cc1ccc(NC(=O)CSCC(=O)N2CCOCC2)cc1,6.63%
13,Cc1ccc(C)c(OCC(=O)O/N=C(\N)c2ccncc2)c1,-3.06%
14,COc1ccc(C2=N/C(=C\c3ccc(SC)cc3)C(=O)O2)cc1,-2.72%
15,CCOc1ccc(N2CC(C(=O)Nc3ccc(Br)c(OC)c3)CC2=O)cc1 (stereo not shown),-1.88%
16,CC(=O)N1C(c2ccc([N+](=O)[O-])cc2)SC[C@H]1C(=O)O (stereo partly shown),-2.51%
17,COc1ccc2cc(-c3nc(-c4ccccc4F)no3)c(=O)oc2c1,5.8%
18,Cc1cccc(C(=O)NC2CCCCC2NC(=O)c2cccc(C)c2)c1 (stereo not shown),3.65%
19,CC1CCCCN1CCNC(=O)Cn1ccc2cc(S(=O)(=O)N3CCCCC3)ccc21 (stereo not shown),1.94%
20,CCc1ccc(CNC(=O)CSCc2ccccc2Cl)cc1,3.79%
21,COCCCn1c(=N)c(C#N)cc2c(=O)n3ccccc3nc21,-5.14%
22,CC(C)(C)C(=O)Nc1ccc(-c2cnc(-c3ccc(NC(=O)C(C)(C)C)cc3)nc2)cc1,4.8%
23,CCc1nnc(N2CCN(c3ncnc4c3cnn4Cc3ccc(Cl)cc3Cl)CC2)s1,0.51%
24,Cc1cc(C)nc(SCC(=O)Nc2cc(C(F)(F)F)ccc2Cl)n1,-1.51%
25,COc1ccc(C(=O)Nc2ccc(N3CCN(S(C)(=O)=O)CC3)cc2)cc1,-6.02%
